IC50 is the fitted dose that halves viability relative to control wells, and lower means more sensitive; fits outside the tested doses are given as limits. The AUC spans the tested range (256-fold, ending at the top dose) of the same fit; values near 1 show little effect. For some assays here: An inferred top dose was calculated from the reported fits. For some assays here: An entry number marks a drug with two screens in the source, which often give different values.
Legend:
Assay in all cases: Viability of human cancer cell lines after 72 h of drug (GDSC screen)
LFM-A13 = compound: C/C(O)=C(\C#N)C(=O)Nc1cc(Br)ccc1Br [LFM-A13]; details: top dose 16 µM; top dose inferred
Procedure: (§1)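 Human cancer cell lines in 384-well plates, medium with 10% serum, drug for 72 h over a 256-fold dose range (nine 2-fold or five 4-fold steps up to the top dose). Adherent lines were fixed and stained with the nucleic acid dye Syto60, suspension lines read with resazurin; signal relative to control wells, capped at 0 and 100%. One two-parameter sigmoid per drug and line, fitted in a mixed model over all curves with the slope shared within a line.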

MP470 = compound: S=C(NCc1ccc2c(c1)OCO2)N1CCN(c2ncnc3c2oc2ccccc23)CC1 [MP470]; details: top dose 20 µM; top dose inferred
Procedure: as §1

KIN001-270 = compound: Cc1ccc(Nc2cc(-c3cccc(N4C(=O)c5ccccc5C4=O)c3)ncn2)cc1NS(C)(=O)=O [KIN001-270]; details: top dose 20 µM; top dose inferred
Procedure: as §1

T0901317 = compound: O=S(=O)(c1ccccc1)N(CC(F)(F)F)c1ccc(C(O)(C(F)(F)F)C(F)(F)F)cc1 [T0901317]; details: top dose 10.24 µM; top dose inferred
Procedure: as §1

Bicalutamide = compound: CC(O)(CS(=O)(=O)c1ccc(F)cc1)C(=O)Nc1ccc(C#N)c(C(F)(F)F)c1 [Bicalutamide]; details: top dose inferred
Procedure: as §1

AUY922 = compound: CCNC(=O)c1noc(-c2cc(C(C)C)c(O)cc2O)c1-c1ccc(CN2CCOCC2)cc1 [AUY922]; details: top dose 0.256 µM; top dose inferred
Procedure: as §1

TW-37 = compound: CC(C)c1ccccc1Cc1cc(C(=O)Nc2ccc(S(=O)(=O)c3ccccc3C(C)(C)C)cc2)c(O)c(O)c1O [TW-37]; details: top dose 5 µM
Procedure: as §1

Gemcitabine = compound: Nc1ccn([C@@H]2O[C@H](CO)[C@@H](O)C2(F)F)c(=O)n1 [Gemcitabine]; details: top dose 1.024 µM
Procedure: as §1

[1] = top dose 1.024 µM, screen: GDSC drug entry 150
[2] = top dose 10 µM, screen: GDSC drug entry 1502

Row | Cell Line | AUC (LFM-A13) | IC50 (LFM-A13) | AUC (MP470) | IC50 (MP470) | AUC (KIN001-270) | IC50 (KIN001-270) | AUC (T0901317) | IC50 (T0901317) | AUC (Bicalutamide; [1]) | IC50 (Bicalutamide; [1]) | AUC (Bicalutamide; [2]) | IC50 (Bicalutamide; [2]) | AUC (AUY922) | IC50 (AUY922) | AUC (TW-37) | IC50 (TW-37) | AUC (Gemcitabine) | IC50 (Gemcitabine)
1 | PL4 (pancreas, adherent) | 0.987 | > 16000 nM | 0.92 | > 20000 nM | 0.972 | > 20000 nM | 0.981 | > 10200 nM | 0.971 | > 1020 nM | 0.986 | > 10000 nM | 0.833 | 174 nM | 0.638 | 765 nM | 0.619 | 138 nM
2 | BHY (head and neck, adherent) | 0.956 | > 16000 nM | 0.948 | > 20000 nM | 0.952 | > 20000 nM | 0.987 | > 10200 nM | 0.983 | > 1020 nM | 0.985 | > 10000 nM | 0.441 | 11.1 nM | 0.63 | 716 nM | 0.181 | 6.98 nM
3 | PCI-4B (head and neck, adherent) | 0.984 | > 16000 nM | 0.959 | > 20000 nM | 0.97 | > 20000 nM | 0.983 | > 10200 nM | 0.987 | > 1020 nM | 0.981 | > 10000 nM | 0.44 | 11.1 nM | 0.39 | 158 nM | 0.039 | < 4 nM
4 | NCI-H2085 (lung adenocarcinoma, adherent) | 0.963 | > 16000 nM | 0.982 | > 20000 nM | 0.952 | > 20000 nM | 0.979 | > 10200 nM | 0.986 | > 1020 nM | 0.984 | > 10000 nM | 0.546 | 21.5 nM | 0.845 | 4060 nM | 0.751 | 363 nM
5 | H3118 (head and neck, adherent) | 0.983 | > 16000 nM | 0.893 | > 20000 nM | 0.966 | > 20000 nM | 0.974 | > 10200 nM | 0.983 | > 1020 nM | 0.96 | > 10000 nM | 0.474 | 13.5 nM | 0.566 | 482 nM | 0.174 | 5.84 nM
6 | EFM-192A (breast, adherent) | 0.921 | > 16000 nM | 0.95 | > 20000 nM | 0.976 | > 20000 nM | 0.986 | > 10200 nM | 0.986 | > 1020 nM | 0.976 | > 10000 nM | 0.493 | 15.2 nM | 0.75 | 1790 nM | 0.153 | 4.66 nM
7 | EN (endometrium, adherent) | 0.977 | > 16000 nM | 0.95 | > 20000 nM | 0.944 | > 20000 nM | 0.983 | > 10200 nM | 0.979 | > 1020 nM | 0.98 | > 10000 nM | 0.884 | > 256 nM | 0.609 | 678 nM | 0.833 | 922 nM
8 | NCI-H1563 (lung adenocarcinoma, adherent) | 0.982 | > 16000 nM | 0.958 | > 20000 nM | 0.979 | > 20000 nM | 0.98 | > 10200 nM | 0.985 | > 1020 nM |  |  | 0.981 | > 256 nM | 0.373 | 131 nM | 0.967 | > 1020 nM
9 | WM-115 (melanoma, adherent) | 0.971 | > 16000 nM | 0.847 | 20000 nM | 0.97 | > 20000 nM | 0.955 | > 10200 nM | 0.98 | > 1020 nM | 0.978 | > 10000 nM | 0.877 | > 256 nM | 0.664 | 998 nM | 0.982 | > 1020 nM
10 | OVCAR-3 (ovary, adherent) | 0.955 | > 16000 nM | 0.987 | > 20000 nM | 0.986 | > 20000 nM | 0.987 | > 10200 nM | 0.984 | > 1020 nM | 0.982 | > 10000 nM | 0.775 | 112 nM | 0.549 | 432 nM | 0.683 | 221 nM
11 | RERF-LC-KJ (lung adenocarcinoma, adherent) | 0.969 | > 16000 nM | 0.97 | > 20000 nM | 0.985 | > 20000 nM | 0.987 | > 10200 nM | 0.985 | > 1020 nM | 0.985 | > 10000 nM | 0.698 | 58.7 nM | 0.727 | 1410 nM | 0.802 | 521 nM
12 | BEN (non-small cell lung carcinoma, adherent) | 0.972 | > 16000 nM | 0.849 | 18400 nM | 0.975 | > 20000 nM | 0.964 | > 10200 nM | 0.986 | > 1020 nM | 0.984 | > 10000 nM | 0.761 | 103 nM | 0.474 | 263 nM | 0.61 | 134 nM
13 | GP5d (large intestine, adherent) | 0.989 | > 16000 nM | 0.941 | > 20000 nM | 0.989 | > 20000 nM | 0.982 | > 10200 nM | 0.991 | > 1020 nM | 0.99 | > 10000 nM | 0.619 | 32.8 nM | 0.55 | 422 nM | 0.368 | 28.9 nM
14 | IM-95 (stomach, adherent) | 0.977 | > 16000 nM | 0.937 | > 20000 nM | 0.956 | > 20000 nM | 0.925 | > 10200 nM | 0.979 | > 1020 nM |  |  | 0.634 | 38.5 nM | 0.628 | 725 nM | 0.317 | 19 nM

Source: the supplement of paper PMC4967469
